In the RNAGym collection of RNA variant scans (doi:10.1073/pnas.2313332121):
Variants at the floor of the assay are shown more often than the library holds them.

B1: TPR 5TU (parent)
chain: GGAUCUUCUCGAUCUAACAAAAAAGACAAAUCUGCCACAAAGCUUGAGAGCAUCUUCGGAUGCAGAGGCGGCAGCCUUCGGUGGCGCGAUAGCGCCAACGUUCUCAACUAUGACACGCAAAACGCGUGCUCCGUUGAAUGGAGUUUAUCAUG

Variants of: B1
Assay: polymerase ribozyme fitness, log enrichment relative to wild type (log ratio); higher = more active; in vitro selection for triplet polymerase activity
In short: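 Each subunit of a heterodimeric triplet polymerase ribozyme was mutagenized into a library by PCR, transcribed, and subjected to one round of in vitro selection, run in triplicate. Libraries were annealed with a biotinylated primer, the partner subunit and triplets, incubated frozen at −7 °C, and extended constructs were gel-excised, captured on streptavidin beads and recovered by RT-PCR. Input and output libraries were sequenced on Illumina, keeping genotypes with ≥10 input reads and ≥1 read per output. Fitness is log base 2 of genotype enrichment divided by wild-type enrichment, from inverse-variance-weighted replicate averages.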

| Variant | polymerase ribozyme fitness (log ratio) |
| --- | --- |
| U33C C76G C93A | ≤ -4.2 |
| U33C C76G C93A A137U | ≤ -4.2 |
| U33C C79G C87U | ≤ -4.2 |
| U33C C85A C103A G136A | ≤ -4.2 |
| U33C G42C U53A C85A A113U A119U | ≤ -4.2 |
| U33C G71C | ≤ -4.2 |
| U33C G81U C99A A110G A119C C132U G133C | ≤ -4.2 |
| U33C G84U G141U | ≤ -4.2 |
| U33C G88A C96U U102G C116U A142U | ≤ -4.2 |
| U33C U45A G84U U144C | ≤ -4.2 |
| U33C U53A A91U U144C A147G | ≤ -4.2 |
| U33C U82C C87G A110U | ≤ -4.2 |
| U33G A39C A52U G70U U111G C116G A121U U146G | ≤ -4.2 |
| U33G A39G G62U G92A A122U U134A | ≤ -4.2 |
| U33G A39U A49C A60U G68A G80A C85U C87U A97U A138U | ≤ -4.2 |
| U33G A39U C43U G84A G117A A119U | ≤ -4.2 |
| U33G A40U A91U | ≤ -4.2 |
| U33G A41C C43U G50A G152U | -4.07 |
| U33G A41C G50C A73U G74A A97G G126U U134C | ≤ -4.2 |
| U33G A47G U55A C75A | ≤ -4.2 |
| U33G A49C G86U A115G | ≤ -4.2 |

| Variant | polymerase ribozyme fitness (log ratio) |
| --- | --- |
| U33G A49G C54A U55A G117C U127A | ≤ -4.2 |
| U33G A49U A60G G112U U148A U151G | ≤ -4.2 |
| U33G A52G U130G C131U G133U U146A | ≤ -4.2 |
| U33G A64G C72G U77A C87G G92C C99A A121U | ≤ -4.2 |
| U33G A91G | ≤ -4.2 |
| U33G A115U G124C | ≤ -4.2 |
| U33G C35A A91U C108G U145G | ≤ -4.2 |
| U33G C35G C99U A137G A138U | ≤ -4.2 |
| U33G C35U G59U C75G G128A U139A | -4.05 |
| U33G C36U A49U G70U G92C | ≤ -4.2 |
| U33G C38A C93U A113U G136A A138U | ≤ -4.2 |
| U33G C38A U53A U55A C95U A106U G126C | ≤ -4.2 |
| U33G C43A G46U G94U | ≤ -4.2 |
| U33G C43U A49C U77G A91U U101A C105G | ≤ -4.2 |
| U33G C51U A97U G136A A142C | ≤ -4.2 |
| U33G C51U U78G G83U C116A C131G | ≤ -4.2 |
| U33G C54A G83A C85G C116U G140U | ≤ -4.2 |
| U33G C69G C79A G92A A106C A115U G136U | ≤ -4.2 |
| U33G C75A C116U C131A | ≤ -4.2 |
| U33G C75A U104G U139A | ≤ -4.2 |
| U33G C76U A107C C131A | ≤ -4.2 |

| Variant | polymerase ribozyme fitness (log ratio) |
| --- | --- |
| U33G C76U G88C | ≤ -4.2 |
| U33G C79A G83C U148A | ≤ -4.2 |
| U33G C85A C118A G126C U146A C149U | ≤ -4.2 |
| U33G C87G C105G A121U C123G U134G G143A | ≤ -4.2 |
| U33G C95G U145A | ≤ -4.2 |
| U33G C95U | -2.22 |
| U33G C99G A107G G141A | ≤ -4.2 |
| U33G C105U U130C U145C | ≤ -4.2 |
| U33G C108A A122U | ≤ -4.2 |
| U33G G34A C95U | ≤ -4.2 |
| U33G G34C A37G A60C A91G G126C U148G | ≤ -4.2 |
| U33G G34C A49U A89G C93A C123G G136U | ≤ -4.2 |
| U33G G42A C103U U111G C129A G152U | ≤ -4.2 |
| U33G G42C G71U C95A A115U C116G | ≤ -4.2 |
| U33G G50A A73C C95A C105A A107G G143C | ≤ -4.2 |
| U33G G50C C72A C85G A106G C125A U144A | ≤ -4.2 |
| U33G G58A A150G | ≤ -4.2 |
| U33G G58C A91G U104C U145G | ≤ -4.2 |
| U33G G58C U90G | ≤ -4.2 |
| U33G G65A C93G U111G | ≤ -4.2 |
| U33G G65C U78G A98G C149A | ≤ -4.2 |

| Variant | polymerase ribozyme fitness (log ratio) |
| --- | --- |
| U33G G70A U78A A89U G94U C131G | ≤ -4.2 |
| U33G G80U C87U A91G A113G C118U | ≤ -4.2 |
| U33G G84A C87G C96G | ≤ -4.2 |
| U33G G84C C132U | ≤ -4.2 |
| U33G G86U U101G U111A | ≤ -4.2 |
| U33G G88U C125U G140A | ≤ -4.2 |
| U33G G124A U134G | ≤ -4.2 |
| U33G U44A C76A G80C A91U A97C U104G U127G | ≤ -4.2 |
| U33G U45C U78C C116U U146G | ≤ -4.2 |
| U33G U53A C57A U61C G136C | ≤ -4.2 |
| U33G U53A C63A C118A | ≤ -4.2 |
| U33G U53A G59A A66G G133U U139A | ≤ -4.2 |
| U33G U53A G152U | ≤ -4.2 |
| U33G U56A G71A U82C A91C C108U G143C | ≤ -4.2 |
| U33G U77G U104G | ≤ -4.2 |
| U33G U78G G83C A98G U101G C116A G117U | ≤ -4.2 |
| G34A A37G U45G G94A U134C U139A | ≤ -4.2 |
| G34A A41C G86C U90G A137C G140C U146G | ≤ -4.2 |
| G34A A41G G94A G133U G143U U146C | ≤ -4.2 |
| G34A A49C C76U C85U C131G | ≤ -4.2 |
| G34A A49C U61G G94A U139G | ≤ -4.2 |
